Source: the supplement of paper PMC3334620
The full ranking holds about 33,000 sequences; the median of “E-score (-0.5 to 0.5)” is about -0.012, and the highest 2% start at about 0.27. The list shows a part of the results.

Target: T1, Vhr1 (UniProt P40522)
T1 sequence: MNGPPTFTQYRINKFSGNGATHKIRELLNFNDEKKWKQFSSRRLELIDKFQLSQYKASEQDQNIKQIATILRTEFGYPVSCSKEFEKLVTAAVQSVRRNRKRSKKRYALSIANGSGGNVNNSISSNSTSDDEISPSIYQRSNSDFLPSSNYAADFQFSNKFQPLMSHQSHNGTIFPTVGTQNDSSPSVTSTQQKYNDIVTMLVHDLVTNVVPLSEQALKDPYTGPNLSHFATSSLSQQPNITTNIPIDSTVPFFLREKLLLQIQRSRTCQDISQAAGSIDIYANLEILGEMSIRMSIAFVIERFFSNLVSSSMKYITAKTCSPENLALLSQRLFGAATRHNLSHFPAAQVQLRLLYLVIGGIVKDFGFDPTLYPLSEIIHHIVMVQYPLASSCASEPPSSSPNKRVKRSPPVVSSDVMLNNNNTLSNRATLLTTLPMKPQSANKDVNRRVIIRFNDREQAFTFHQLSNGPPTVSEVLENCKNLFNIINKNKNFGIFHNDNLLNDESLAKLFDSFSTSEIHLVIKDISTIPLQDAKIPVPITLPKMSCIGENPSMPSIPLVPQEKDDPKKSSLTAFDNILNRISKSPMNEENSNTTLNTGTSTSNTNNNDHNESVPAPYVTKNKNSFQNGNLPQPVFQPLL
Assay: PBM E-score (8-mer binding enrichment) (E-score (-0.5 to 0.5)); higher = stronger / more preferred TF binding; most listed sequences are background and not binding sites
Details: protein concentration: 200 nM; construct: GST-full length
Method: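 Universal 'all 10-mer' protein binding microarrays (Agilent AMADID 015681) probed with GST-tagged S. cerevisiae TFs (full-length or DBD) made by in vitro transcription/translation (PURExpress), about 100-200 nM. Bound TF was detected with fluorescent anti-GST. Each ungapped 8-mer (which stands for itself and its reverse complement) is scored by the PBM enrichment score (E-score), a modified Wilcoxon-Mann-Whitney statistic from -0.5 to +0.5, computed with the Universal PBM Analysis Suite. Scale: above 0.35 generally sequence-specific binding.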

| Sequence | PBM E-score |
| --- | --- |
| CTGGGTTA | 0.225 |
| ACTGACTC | 0.421 |
| GATCCATA | 0.21 |
| ATAAGAAT | 0.00682 |
| ATACGACA | 0.168 |
| ACATTACA | 0.128 |
| ACCAGTAA | 0.107 |
| AAAGGCCA | -0.0706 |
| AGCAACGC | -0.117 |
| CATAGAGC | -0.0922 |
| AATGCACC | -0.0135 |
| CTGGAAGC | -0.235 |
| AAAGCTAT | -0.0772 |
| AATTAACC | 0.117 |
| AGGGTGTG | 0.0995 |
| GAGTCGGC | 0.411 |
| CGTCAGAA | -0.284 |
| CTCTTTCA | -0.147 |
| ACCTTCGT | -0.216 |
| AGTGGCGC | 0.139 |
| GCGTACCA | -0.0231 |
| GGCAGACC | -0.198 |
| ACGTTAGT | -0.048 |
| CCCCTTCA | -0.262 |
| TCAGCACA | 0.109 |

| Sequence | PBM E-score |
| --- | --- |
| ACGGATGA | 0.141 |
| ATCCAGAT | 0.1 |
| GTTCGGAA | -0.0839 |
| GGCTAGGA | -0.113 |
| AATCCGCC | -0.0623 |
| AAATGCTT | -0.229 |
| CCGATCGG | 0.0208 |
| CTCCATGC | 0.0806 |
| ACCAACAG | 0.046 |
| ACCCCGCC | 0.199 |
| CCCGCCCA | 0.301 |
| CAATCTGA | 0.00363 |
| CAGCTCAC | -0.117 |
| CTTTGTCC | -0.111 |
| ACTAGCCT | 0.00039 |
| ACCAGGAA | -0.173 |
| ACACCCCT | 0.0117 |
| AACCTGGT | 0.199 |
| ATCGTTTC | -0.0595 |
| GCAAAGCC | -0.289 |
| AAAACTAG | -0.0558 |
| CCAGAACA | 0.0736 |
| CGGTCTAA | -0.209 |
| CGGGCGTA | -0.126 |
| TCTTGACA | 0.0152 |

| Sequence | PBM E-score |
| --- | --- |
| ACTAAGTG | 0.118 |
| GAGGAGCA | -0.072 |
| GAAGTATA | 0.0746 |
| GAGCATGA | 0.0876 |
| CCTGCACC | -0.175 |
| CATTATCC | 0.193 |
| CACGGTAC | 0.129 |
| GCGTTCTA | -0.129 |
| AAAGATGG | -0.242 |
| CACAACTG | 0.0157 |
| GGCAGCAC | -0.0212 |
| CTTGGAAC | -0.0826 |
| CAGATCCG | 0.0371 |
| AAATAGCC | -0.0966 |
| GTTCTGAA | -0.0921 |
| CGGAGCGC | 0.0627 |
| TAGGCTCA | -0.146 |
| CAGCACCA | -0.0244 |
| GGTCCGGA | 0.142 |
| CGATGTTC | 0.142 |
| CTATACAA | 0.0774 |
| TAATAATA | 0.0976 |
| ATTGGTGC | 0.135 |
| GCGGCGCA | 0.0393 |
| GAACAAGA | -0.0334 |

| Sequence | PBM E-score |
| --- | --- |
| ACTCGTCA | 0.0193 |
| CTTAGGGA | -0.253 |
| AAGTTAGG | -0.095 |
| AGTGTCAG | 0.0138 |
| ACTCCATC | 0.213 |
| GGACCCTA | -0.263 |
| GCTGCGGA | -0.00642 |
| GTGTATCA | 0.275 |
| CAGCACAC | 0.0182 |
| ACAACAAG | 0.0895 |
| ACGTGCAT | -0.129 |
| CTAGCACA | -0.107 |
| TTCGACAA | -0.0885 |
| ACTTCCCC | -0.157 |
| CCCCAACG | -0.156 |
| CGAGTAAC | 0.139 |
| CACAGCGC | 0.185 |
| GTCCTAAC | -0.0108 |
| CAATCGTA | -0.029 |
| AAGGGGGG | -0.192 |
| ACTAGGGC | 0.0613 |
| CGCCGCCG | 0.0529 |
| ATCCAAAG | 0.0856 |
| ATGGATGC | -0.0487 |
| CAGTACTG | 0.062 |

| Sequence | PBM E-score |
| --- | --- |
| ATTAACCG | 0.165 |
| GACTCTAC | 0.135 |
| TACTGGAA | 0.153 |
| CGGTCTAG | 0.158 |
| GGAGGGCA | 0.0601 |
| AAAATACG | 0.112 |
| CAATTTCA | -0.249 |
| ATGGTAAA | 0.103 |
| CGGAATAA | -0.0766 |
| AAGATCGT | -0.0977 |
| CTTTTTAC | -0.164 |
| CACTGCAC | 0.133 |
| AGTTCTTG | -0.15 |
| TGCACAAA | -0.165 |
| AGCCATAC | 0.152 |
| CCCGGATC | 0.145 |
| CAGGGTCG | 0.025 |
| CTCTTTTA | -0.222 |
| AAAGATCC | -0.0874 |
| AGGTTCCG | -0.0637 |
| GATGTTGC | -0.0728 |
| ACAGACTC | 0.164 |
| GCTGCCAA | -0.0372 |
| ATATGGCA | 0.0772 |
| CACCCACG | 0.249 |

| Sequence | PBM E-score |
| --- | --- |
| ACCAGTTA | 0.0649 |
| CGCTGTCA | -0.0245 |
| AATCCTCG | 0.0459 |
| AGTGTCTC | 0.00473 |
| CCGTTTAA | -0.126 |
| GTGTGTGA | 0.298 |
| ATGGCAAC | -0.00238 |
| GAATGGTA | -0.0351 |
| AAATCGTA | 0.0863 |
| GTTCTTCA | -0.123 |
| CACACAGG | 0.272 |
| GGGTTAAC | -0.0119 |
| AGCAAACA | 0.0181 |
| CAGCGTCA | -0.116 |
| CCAGGTCA | -0.187 |
| CATTGAGA | 0.0157 |
| GGATTCCC | -0.154 |
| CGTTCAAA | -0.198 |
| CATTGCGA | 0.0667 |
| AGTTCCTG | -0.252 |
| TGGCTCAA | 0.0366 |
| AATCTGAT | 0.0984 |
| CCTCTTAC | -0.215 |
| CCAAAGCA | 0.125 |
| AATTACCC | -0.0719 |

| Sequence | PBM E-score |
| --- | --- |
| CCAGAACC | -0.0247 |
| CAGAATGA | 0.0955 |
| GAAATGAA | 0.101 |
| AACCATTG | -0.0562 |
| ATCCTTGC | -0.112 |
| ACTACCTA | 0.0258 |
| CCCTAGCA | -0.0457 |
| GCTCTGCC | -0.205 |
| CGACGAAG | -0.0239 |
| CTATAGAC | -0.115 |
| GTGTAGAA | -0.00458 |
| AGCTTGGG | -0.0403 |
| GGTTTGCA | 0.0676 |
| CGTGGAAG | -0.0406 |
| CGCCTTAA | 0.0587 |
| GGGGGACA | 0.0626 |
| CATTCACG | -0.114 |
| GGTGTGGA | 0.181 |
| GGACCTAA | -0.118 |
| ATCACTTC | 0.158 |
| AGACCCTC | -0.259 |
| CCCTTAAC | -0.168 |
| ATATAATA | 0.144 |
| GGGTAACA | 0.099 |
| CACGCGTC | 0.275 |

| Sequence | PBM E-score |
| --- | --- |
| CGCCATGC | 0.0189 |
| CGCCGTGA | 0.193 |
| CACGGGGC | -0.00164 |
| AGAGGTCA | -0.0353 |
| CTTTTGTA | 0.012 |
| AGCGAGAC | -0.0329 |
| CTCATGCC | -0.0244 |
| ACGACGGG | -0.0612 |
| GTGGTGAA | -0.0322 |
| TGCAACCA | 0.19 |
| CCTGGACA | -0.199 |
| CCTAGTAC | 0.0265 |
| CTGCACCA | -0.0493 |
| CCAGGCAA | -0.034 |
| CACGGGCA | -0.0366 |
| CAGTAACC | 0.144 |
| GGTTATCA | 0.141 |
| AACTTTGT | -0.0285 |
| CTTCTGGC | -0.0705 |
| ATTCCCCA | 0.0406 |
| GCGTCACA | -0.05 |
| ACGTCGGC | -0.148 |
| CCTCCAAA | -0.00038 |
| AGTAAGAG | -0.108 |
| CACACCGC | 0.235 |

| Sequence | PBM E-score |
| --- | --- |
| AACATAGG | 0.0129 |
| TAAACTGA | 0.0209 |
| GATTCTAA | -0.0226 |
| AAATCGGA | -0.202 |
| GTCATTGA | 0.0398 |
| AAGTCCGG | -0.179 |
| ACCGCACA | 0.14 |
| ACCTATTC | -0.0906 |
| AAAGGCTA | -0.0728 |
| AGCTGACA | 0.0633 |
| AGCGGCCT | 0.114 |
| CCGTATTC | -0.00198 |
| GCTAAGTA | -0.0272 |
| CCTTTGCA | -0.263 |
| ACAAGGGA | -0.219 |
| ACGCTCGA | -0.268 |
| AGTTGTAG | -0.126 |
| GCTGCGCA | 0.0463 |
| TACGGCCA | -0.127 |
